Screen size: about 310,000 compounds; about 14,000 (4.5%) showed an effect of 50% or more. The effect is printed as a negative number. The list shows a part of the results.
These molecules were tested against human ether-à-go-go-related gene (hERG) potassium channel (human, UniProt Q12809) (assay: primary screen, population patch clamp on CHO cells stably expressing hERG).
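Further: peak tail current of the secondary pulse compared with the same well before compound.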

Chain of human ether-à-go-go-related gene (hERG) potassium channel (Q12809 whole entry, looked up): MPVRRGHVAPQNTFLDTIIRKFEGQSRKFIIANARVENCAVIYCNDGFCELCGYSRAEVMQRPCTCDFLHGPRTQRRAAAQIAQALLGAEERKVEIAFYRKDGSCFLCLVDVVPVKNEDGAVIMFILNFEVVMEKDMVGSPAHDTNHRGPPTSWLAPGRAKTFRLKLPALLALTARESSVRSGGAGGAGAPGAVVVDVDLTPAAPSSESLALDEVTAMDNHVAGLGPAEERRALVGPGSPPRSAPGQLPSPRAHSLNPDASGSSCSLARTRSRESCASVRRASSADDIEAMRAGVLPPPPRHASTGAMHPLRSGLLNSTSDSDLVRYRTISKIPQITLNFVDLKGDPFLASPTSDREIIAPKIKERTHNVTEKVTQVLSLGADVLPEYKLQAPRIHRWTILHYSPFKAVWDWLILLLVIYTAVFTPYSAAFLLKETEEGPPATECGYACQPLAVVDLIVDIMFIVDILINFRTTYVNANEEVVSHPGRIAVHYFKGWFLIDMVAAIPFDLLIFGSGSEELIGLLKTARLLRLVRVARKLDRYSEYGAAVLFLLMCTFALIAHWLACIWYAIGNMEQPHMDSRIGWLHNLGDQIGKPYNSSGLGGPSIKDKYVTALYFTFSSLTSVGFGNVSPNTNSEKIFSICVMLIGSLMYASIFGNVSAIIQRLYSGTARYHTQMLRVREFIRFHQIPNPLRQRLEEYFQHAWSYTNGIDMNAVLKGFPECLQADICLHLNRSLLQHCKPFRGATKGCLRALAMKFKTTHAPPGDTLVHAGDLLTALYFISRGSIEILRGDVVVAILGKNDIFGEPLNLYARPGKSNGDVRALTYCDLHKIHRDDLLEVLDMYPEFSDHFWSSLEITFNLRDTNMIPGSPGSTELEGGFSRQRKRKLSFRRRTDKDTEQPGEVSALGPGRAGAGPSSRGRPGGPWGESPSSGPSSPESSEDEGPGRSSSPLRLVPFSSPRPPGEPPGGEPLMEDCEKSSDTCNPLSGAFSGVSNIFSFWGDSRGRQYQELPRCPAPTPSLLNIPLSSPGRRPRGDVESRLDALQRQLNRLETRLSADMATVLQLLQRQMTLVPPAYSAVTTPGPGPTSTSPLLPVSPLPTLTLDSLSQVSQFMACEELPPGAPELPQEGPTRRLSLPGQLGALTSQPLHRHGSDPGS

Row | SMILES | hERG current change (%, negative = inhibition) at 10uM
1 | O=c1c2ccccc2c(C=Nc2cccc(S(=O)(=O)NC3=NCCCCC3)c2)c(O)n1Cc1ccccc1 | 0.92%
2 | CC(=O)Oc1c(C(=O)c2nnc(C)o2)c(=O)n(Cc2ccccc2)c2ccccc12 | 1.56%
3 | Nn1c(Cc2ccccc2F)nnc1SCn1nnc2ccccc2c1=O | -4.66%
4 | CC(=O)N1CCC(=NNS(=O)(=O)c2ccc(C)c([N+](=O)[O-])c2)CC1 | -16.6%
5 | CCCCS(=O)(=O)N1CCN(C(=N)N[N+](=O)[O-])CC1 | 6.5%
6 | Cc1c(NC(=O)c2ccccc2N(C)S(=O)(=O)c2ccccc2)c(=O)n(-c2ccccc2)n1C | -4.4%
7 | Cc1ccc2c(c1)C(c1ccc(F)cc1)N(C(=O)C1CC1)CC(=O)N2 (stereo not drawn) | 2.95%
8 | CCOC(=O)c1ccc(NC(=O)CSc2nnc(C3CCCCC3)n2C)cc1 | 10.9%
9 | Cc1cc(NC(=O)CN2CCC(n3nnc4cc(C(F)(F)F)ccc43)CC2)no1 | -50%
10 | COc1cccc(NC(=O)CSc2nnc(NC(=O)C3CC3)s2)c1 | 17.1%
11 | COc1ccc(NC(=O)CSc2cc(C)nc3c(-c4ccccc4)cnn23)cc1 | 7.75%
12 | O=C(COc1ccccc1-c1ccccc1)Nc1ccc(S(=O)(=O)NCc2ccco2)cc1 | 4.89%
13 | CCCNC(=O)CN1C(=O)COc2ccc(S(=O)(=O)N3CCCCCC3)cc21 | 16.5%
14 | COc1cc(NC(=S)NCc2cccnc2)cc(OC)c1OC | 27.5%
15 | O=Cc1cn(CC(=O)Nc2ccccc2)c2ccccc12 | 18.1%
16 | Cc1cc(Cl)ccc1OCCCC(=O)N1CCN(C)CC1 | -30%
17 | Cc1nn2c(NCCCN(C)C)c3c(nc2c1-c1ccccc1)CCCC3 | -32.2%
18 | O=C(O)c1ccccc1-c1ccccc1C(=O)NCc1ccccc1F | 21.9%
19 | CNc1ccccc1C(=O)OC | 12.3%
20 | O=C(Nc1ccccc1-c1ccccc1)C1CCCCC1 | -1.2%
21 | COc1ccc(/C=N/NC(=O)CCc2n[nH]c(=O)[nH]c2=O)cc1O | 7.12%
22 | S=C(NC1CCCCC1)N1CCn2cccc2C1c1cccnc1 (stereo not drawn) | -8.63%

Row | SMILES | hERG current change (%, negative = inhibition) at 10uM
23 | CCCCCc1nc2c(c(=O)c3ccccc3n2C)c(=O)n1C1CCCCCC1 | 1.32%
24 | CCCCN(C)C(=O)c1cn(CC)c2ccc(S(=O)(=O)N(C)C)cc2c1=O | 8.08%
25 | O=[N+]([O-])c1ccc2nc(SCc3cn4cccnc4n3)[nH]c2c1 | -14.3%
26 | CN(CC(=O)NNC(=O)c1cccnc1)S(=O)(=O)c1cc(Cl)ccc1Cl | 3.78%
27 | CCC(C)(C)n1nnnc1CN1CCSCC1.Cl | 12%
28 | Cc1ccc(F)cc1NC(=O)CN1C(=O)NC2(CCCc3ccccc32)C1=O (stereo not drawn) | -1.5%
29 | CCN1CCN(C(=O)c2ccc3c(c2)N(Cc2ccccc2)C(=O)c2ccccc2S3=O)CC1 (stereo not drawn) | -16.1%
30 | COC(=O)c1cc(-c2ccc(Br)cc2)c2c(=O)n(C)c(=O)n(C)c2n1 | 11.3%
31 | COCc1cc(C)nc(NC2CCCCC2)c1C#N | -10.8%
32 | N#CCC(=O)Nc1nc(-c2ccc3c(c2)OCCO3)cs1 | 13.1%
33 | CCOC(=O)c1sc(=NC(=O)c2ccc(OC)c(OC)c2)n(C)c1C | 2.13%
34 | CC1CN(C(=O)c2ccc(N3CCCCC3)c([N+](=O)[O-])c2)CC(C)O1 (stereo not drawn) | -21.1%
35 | CC(O)[C@H]1CN=C(N)N1CC(C)(C)C (stereo partly drawn) | 14.1%
36 | COc1ccc(-c2cc3ccccc3[nH]2)cc1 | 7.8%
37 | CC(C(=O)N1CCCCC1)N1C(=O)c2ccccc2C1=O (stereo not drawn) | 4.41%
38 | CCOc1ccc(NC(=O)COc2ccc(C(=O)NC(C)c3ccc(S(N)(=O)=O)cc3)cc2OC)cc1 (stereo not drawn) | -0.0396%
39 | CCOC(=O)C1=C(c2ccccc2)OC(N)=C(C#N)C1c1ccco1 (stereo not drawn) | 10.9%
40 | O=[N+]([O-])c1c(NCCCO)cc(N2CCCCCC2)c2nonc12 | -5.66%
41 | CN(CC(=O)Nc1ccccc1Br)C(=O)c1ccccc1-c1nc2ccccc2s1 | -26.3%
42 | CC(C)Cc1nnc(NC(=O)CCC(=O)N2CCCCC2)s1 | 8.77%
43 | Cc1cccc(C(=O)N2CC(=O)Nc3ccc(F)cc3C2c2ccc(F)cc2)c1 (stereo not drawn) | 2.54%
44 | COc1ccc(C(=O)CSc2nnc(-c3cnccn3)n2Cc2ccco2)cc1 | -10.2%

Row | SMILES | hERG current change (%, negative = inhibition) at 10uM
45 | CCOC(=O)c1c(C)n(C(=O)c2ccco2)c(=O)n1C(=O)c1ccco1 | -10.9%
46 | CC(=O)Nc1nc(N)n(-c2ccccc2)n1 | 3.2%
47 | O=C(Cc1ccccc1)Nc1ccc(NC(=O)c2ccc(Br)cc2)cc1 | 15.4%
48 | O=C(c1ccccc1Br)N1CCN(c2ncccn2)CC1 | 20.3%
49 | CC1CCN(c2ccccc2NC(=O)c2ccc(F)cc2)CC1 | 6.41%
50 | CC(C)(C)Nc1scc(-c2ccccc2)[n+]1-c1ccccc1.[Br-] | 4.85%
51 | CCN(CC)CCCSc1nc2ccccc2s1.O=C(O)C(=O)O | -31.9%
52 | CC1Cc2ccccc2N1c1ncnc(N)c1[N+](=O)[O-] (stereo not drawn) | -24.2%
53 | Cc1nc2sccc2c(=O)n1-c1cccc(Cl)c1 | -6.82%
54 | COc1cc2[nH]c(=S)n(CC3CCCO3)c(=O)c2cc1OC (stereo not drawn) | -0.417%
55 | Cc1ccc(C2(C)NC(=O)N(CC(=O)NNC(=O)c3cc(C)oc3C)C2=O)cc1 (stereo not drawn) | 12.9%
56 | O=C1Nc2ccccc2C12OCC(COc1ccc(Cl)cc1)O2 (stereo not drawn) | 0.979%
57 | CCN1C[C@]2(COC)CC[C@H](O)[C@@]34C5C[C@@H]6[C@@H](OC)C[C@@](O)(C5[C@H]6O)[C@](O)([C@@H](OC)C23)[C@@H]14 (stereo partly drawn) | -1.74%
58 | COc1ccc2c(c1)[nH]c1c(=O)n(CCN3CCOCC3)cnc12 | 8.72%
59 | O=C(O)c1ccccc1C(=O)N1CCc2c([nH]c3ccccc23)C1C(F)(F)F (stereo not drawn) | 16.7%
60 | Cc1cc(Nc2ccc([N+](=O)[O-])cc2)nc2ccccc12 | 14.9%
61 | COc1ccccc1NC(=O)c1c([N+](=O)[O-])c(C(C)(C)C)nn1C | -6.71%
62 | CC(C)(C)c1ccc(NC(=O)NCc2ccco2)cc1 | -2.22%
63 | CCc1nn(CC(=O)NCCc2ccc(OC)cc2OC)c(=O)c2cc3occc3n12 | 6.13%
64 | O=C1CCCC/C1=C/Nc1ccc2c(c1)OCO2 | 8.92%
65 | COc1ccc(C2CC(c3ccc(C)o3)=NN2C(C)=O)cc1 (stereo not drawn) | 7.14%
66 | Cc1cc(NC(=O)CCC(=O)N(c2ccccc2)C(C(=O)NC2CCCC2)c2ccccc2)no1 (stereo not drawn) | -1.39%

Row | SMILES | hERG current change (%, negative = inhibition) at 10uM
67 | CN1CCN(C(=S)Nc2cc([N+](=O)[O-])ccc2Cl)CC1 | -0.759%
68 | Cc1ccc(CNC(=O)c2cccc3c2C(=O)c2ccc(N4CCC(C)CC4)cc2S3(=O)=O)cc1 | 9.65%
69 | Cc1ccc(C(=O)Nc2ccc3c(c2)OCO3)cc1S(=O)(=O)N1CCCC1 | -2.34%
70 | CN(C)S(=O)(=O)c1ccc(N2CCCC2=O)c([N+](=O)[O-])c1 | -5.38%
71 | Clc1ccc(-c2cc(COc3ccccc3)on2)cc1 | 12.9%
72 | O=C(NCc1ccccc1Cl)c1ccc2nnsc2c1 | 4.01%
73 | CCN1C(=O)[C@H]2[C@@H](c3ccc(Cl)cc3)N3C(=O)CN(CC4CC4)C(=O)[C@@]3(C)[C@H]2C1=O | -4.85%
74 | COc1ccc(C(=O)NCc2ccncc2)cc1OC | 18.9%
75 | O=C(Nc1ccccc1N1CCOCC1)c1cccc(NS(=O)(=O)c2ccc(F)c(F)c2)c1 | -6.07%
76 | O=C(NC(=S)Nc1ccc2oc(=O)ccc2c1)c1cc2ccccc2o1 | 0.509%
77 | CCCCNC(=O)CC(C(=O)N1CCc2ccccc21)n1ccnc1 (stereo not drawn) | -20.8%
78 | COCCNC(=S)N/N=C(\C)c1ccc(O)cc1 | -22.5%
79 | COc1ccc(N2CCN(Cc3cc(=O)oc4cc(C)c(Cl)c(C)c34)CC2)cc1 | 11%
80 | Cc1ccc(S(=O)(=O)N(C)c2cc(S(=O)(=O)N3CCC(C)CC3)c(C)cc2C)cc1 | -9.38%
81 | CCC(=O)Nc1cccc(C(=O)Nc2nccs2)c1 | 5.14%
82 | Cc1ccc(C)c(NC(=S)NCCN2CCOCC2)c1 | 2.96%
83 | CCn1cc(C(=O)N2CCN(c3cccc(Cl)c3)CC2)c2cc(OC)c(OC)cc2c1=O | -64.8%
84 | CCC(Cc1ccccc1)NS(=O)(=O)c1c(C)nc2scc(C)n2c1=O (stereo not drawn) | 11.8%
85 | C/C(=N\NC(=O)c1cccc(S(=O)(=O)N2CCCC2)c1)c1ccncc1 | -1.9%
86 | CCn1c(CNC(=O)c2cccc(C)c2)nnc1SCC(=O)NC1CCCCC1C (stereo not drawn) | 19.1%
87 | O=C(Nc1ccc(S(=O)(=O)N2CCCC2)cc1)Nc1ccc(F)cc1F | 12%

From PMC4336329 (PLoS ONE, 2015)
